Hit rate of the full screen: of about 370,000 compounds, about 150 (0.041%) were called active. This list was built around the results that the source calls inconclusive (neither active nor inactive); the mix of calls is not that of the screen. Calls come from the whole dose curve; as a rule, active = well fitted inhibition curve with a large enough effect; inconclusive = small, poorly fitted or top-dose-only effect; inactive = flat fitted curve, though single readings scatter. No potency is given beside an inconclusive call; the fits are too rough.
The compounds below were run against Beta-lactamase (Escherichia coli (strain K12)) (UniProt P00811) (assay: qHTS Inhibitors of AmpC Beta-Lactamase (assay with detergent)). Conditions: AmpC hydrolysis of nitrocefin, absorbance 480 nm, 0.01% Triton; activity change, negative = inhibition: at 114 µM (top of the series).
Method in brief: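 AmpC (5.3 nM in the dispensed reagent) in 20 mM phosphate pH 7.0 with 0.01% (detergent screen) or 0.0001% Triton X-100 was preincubated with compounds for 15 min at room temperature. Nitrocefin was then added from an 800 uM solution, and hydrolysis was followed at 480 nm.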
Note: nearly all actives have a fitted effect of over 25% in size.
Potency is the fitted concentration of half-maximal effect; tags give direction and shape of the fitted curve.
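Throughout, for activity change, negative = inhibition: 0% = no-compound wells and -100% = no-enzyme wells.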

UniProt P00811, sequence (P00811 whole entry, looked up): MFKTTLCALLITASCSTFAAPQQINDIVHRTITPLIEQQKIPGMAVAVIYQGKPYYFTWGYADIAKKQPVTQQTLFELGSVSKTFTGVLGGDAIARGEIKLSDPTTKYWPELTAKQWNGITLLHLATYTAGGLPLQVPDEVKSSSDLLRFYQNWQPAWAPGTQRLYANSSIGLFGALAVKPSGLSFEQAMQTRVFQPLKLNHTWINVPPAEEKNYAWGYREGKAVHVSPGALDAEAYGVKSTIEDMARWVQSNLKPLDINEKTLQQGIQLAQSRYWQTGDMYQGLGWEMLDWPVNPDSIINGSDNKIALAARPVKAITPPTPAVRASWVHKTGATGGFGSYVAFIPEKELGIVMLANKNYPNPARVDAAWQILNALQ

Compound	Potency	activity change, negative = inhibition
O=C(CSc1ncnc2scc(-c3ccc(F)cc3)c12)c1ccc2c(c1)OCCO2	inconclusive [inhibitor, partial curve, poor fit]	–
CCOC(=O)C(CC)n1nc(C)n2c(cc3sccc32)c1=O (stereo not given)	inconclusive [inhibitor, partial curve]	–
Cc1ccc(/C=C/C(=O)c2c(C)nc3ccccn23)cc1	–	inactive: 3.15%
Cc1ccc(-n2ncc(C(=O)Nc3cc(Cl)ccc3C)c2C2CCNCC2)cc1C	–	inactive: -0.392%
O=C(Nc1ccc(N2CCOCC2)cc1)c1cccc(S(=O)(=O)N2CCC(Cc3ccccc3)CC2)c1	inconclusive [inhibitor, single point]	–
CCOC(=O)c1nc2nc(C)cc(=O)n2[nH]1	inconclusive [inhibitor, full curve, poor fit]	–
CCCCNc1nnc(SCC(=O)c2c(N)n(CCC)c(=O)[nH]c2=O)s1	inconclusive [inhibitor, full curve, poor fit]	–
O=C(NCC1COc2ccccc2O1)c1ccc(Cl)cc1 (stereo not given)	inconclusive [inhibitor, partial curve, poor fit]	–
CCc1ccc2[nH]c(=O)c(CN(CCN(C)C)C(=O)Nc3ccccc3)cc2c1	inconclusive [inhibitor, partial curve, poor fit]	–
CCC(=O)c1cc(F)c(N2CCN(C(=O)c3ccco3)CC2)cc1C	inconclusive [inhibitor, full curve]	–
Cn1c2c(c(=O)n(C)c1=O)C(c1ccc(O)cc1)Nc1ccccc1O2 (stereo not given)	inconclusive [inhibitor, full curve, poor fit]	–
Cc1cc(C)c(-c2nc3ccccc3s2)[nH]1	–	inactive: -7.66%
CC(=O)Nc1ccc(S(=O)(=O)N2CCN(C(=O)N3CCCCC3)CC2)cc1	inconclusive [inhibitor, full curve, poor fit]	–
CC1CCN(S(=O)(=O)c2ccc(S(=O)(=O)NCC3COCCO3)cc2)CC1 (stereo not given)	inconclusive [inhibitor, partial curve, poor fit]	–
Cc1cc(COC(=O)C2N3C(=O)[C@@H](NC(=O)COc4ccccc4)[C@H]3SC2(C)C)on1 (stereo not given in full)	–	inactive: 1.64%
CCn1c(SCc2nc3ccccc3nc2C)nnc1-c1cccs1	–	inactive: -1.82%
COc1cc2c(cc1OC)C1O[C@](CCCCN3C(=O)c4ccccc4C3=O)(C2)Oc2c1c(=O)oc1ccccc21	inconclusive [inhibitor, full curve]	–
NC(=O)c1c(/N=C/c2cccs2)sc2c1CCCC2	–	inactive: 2.05%
COc1cccc(CN2CCC(n3nccc3NC(=O)C3CC3)CC2)c1	inconclusive [inhibitor, full curve, poor fit]	–
NC(=O)c1ccsc1NC(=O)COC(=O)c1nc(Cl)ccc1Cl	inconclusive [inhibitor, partial curve, poor fit]	–
CC(Sc1nnc(Cn2c(=O)sc3ccccc32)n1C)c1ccccc1 (stereo not given)	inconclusive [inhibitor, full curve, poor fit]	–
O=S(=O)(Nc1cccc(-c2ccc(N3CCOCC3)nn2)c1)c1ccc(Cl)c(Cl)c1	inconclusive [inhibitor, partial curve]	–

Compound	Potency	activity change, negative = inhibition
Cc1ccc(CCNC(=O)C2CCCN(S(=O)(=O)c3cnc[nH]3)C2)cc1 (stereo not given)	inconclusive [inhibitor, full curve, poor fit]	–
C=CCSc1nc2sc3c(c2c(=O)[nH]1)CCC3	–	inactive: 1.69%
CNc1nc(N)c([N+](=O)[O-])c(NCC2CCCO2)n1 (stereo not given)	–	inactive: 1.27%
O=C(O)C1CCCCC1C(=O)Nc1ccccn1 (stereo not given)	inconclusive [inhibitor, full curve, poor fit]	–
CCOC(=O)c1oc2ccccc2c1COC(=O)CNC(=O)c1ccco1	inconclusive [inhibitor, full curve]	–
CCN1C(=O)/C(=C\c2ccc(-c3ccc([N+](=O)[O-])cc3OC)o2)SC1=Nc1cccc(C(=O)O)c1	–	inactive: -4.13%
CCc1nnc(NC(=O)c2nc(S(=O)(=O)Cc3ccccc3)ncc2Cl)s1	–	inactive: 1.93%
Cc1cccc(C)c1NC(=O)c1sc(Cl)nc1C	inconclusive [inhibitor, partial curve, poor fit]	–
CNC[C@H](CC1CCCCC1)NC[C@H](NCCC1CCCC1)[C@H](C)O	inconclusive [inhibitor, partial curve, poor fit]	–
COc1cc(OC)c2c(-c3ccccc3)cc(=O)oc2c1	inconclusive [inhibitor, partial curve]	–
COc1cccc(C(=O)C2=NN(C(C)=O)CC2c2ccco2)c1 (stereo not given)	inconclusive [inhibitor, single point]	–
CCCCCCCOC(=O)C[N+](C)(C)CCOC1CC2CCC1(C)C2(C)C (stereo not given)	–	inactive: -0.365%
Cc1nc(S(=O)(=O)c2ccc(Cl)cc2)nc2c1CCC2	inconclusive [inhibitor, partial curve]	–
COc1ccccc1NC(=O)CN1CCC(n2c(C)nc3cc(F)ccc32)CC1	inconclusive [inhibitor, partial curve, poor fit]	–
CCCS(=O)(=O)N1CCCC(C(=O)NCCCN(C)c2ccccc2)C1 (stereo not given)	inconclusive [inhibitor, full curve, poor fit]	–
COc1ccccc1C(=O)NNC(=O)c1csc(N2CCOCC2)n1	inconclusive [inhibitor, full curve, poor fit]	–
CCOC(=O)c1ccc(NC(=S)N(CCCN2CCCC2)Cc2cccs2)cc1	inconclusive [inhibitor, full curve, poor fit]	–
COCCn1c(C)cc(C(=O)COC(=O)/C=C/c2c(C)nn(C3CCS(=O)(=O)C3)c2Cl)c1C (stereo not given)	inconclusive [inhibitor, partial curve]	–
O=S(=O)(c1ccccc1)N1N=C(c2cccs2)CC1c1cccc(O)c1 (stereo not given)	–	inactive: 1.25%
COc1cccc2c1O/C(=N\O)C(C(=O)Nc1cccc(Br)c1)C2 (stereo not given)	–	inactive: -3.1%
CC(C)(C)OC(=O)N[C@H](Cc1ccccc1)C(=O)N1CCC(C(=O)O)CC1	inconclusive [inhibitor, full curve]	–
COc1ccccc1N1CCN(C(c2cc3ccc(C)cc3[nH]c2=O)c2nnnn2C2CCCC2)CC1 (stereo not given)	inconclusive [inhibitor, full curve, poor fit]	–

Compound	Potency	activity change, negative = inhibition
CC(/C=C/c1ccc(OCc2ccccc2)cc1)=N\O	inconclusive [inhibitor, full curve, poor fit]	–
CC1Cc2ccccc2N1S(=O)(=O)c1cnc(Cl)c(Br)c1 (stereo not given)	–	inactive: 1.13%
C=CCc1cccc(/C=N/c2ncccc2O)c1O	inconclusive [inhibitor, full curve]	–
O=C(Nc1ccccn1)c1cccc(S(=O)(=O)N2CCCc3ccccc32)c1	inconclusive [inhibitor, partial curve, poor fit]	–
COCCCn1c(SCC(=O)NCc2ccccc2)nc2ccccc2c1=O	inconclusive [inhibitor, full curve, poor fit]	–
O=C1CCC(C(=O)N2CCSCC2)CN1Cc1cccc(C(F)(F)F)c1 (stereo not given)	–	inactive: -6.45%
Cc1ccc(NC2=NC(C(=O)Nc3ccc(C)c(C)c3)CC(=O)N2)cc1 (stereo not given)	inconclusive [inhibitor, full curve, poor fit]	–
CC1CCc2nn(CC(=O)NCc3ccc(F)cc3)cc2C1 (stereo not given)	inconclusive [inhibitor, full curve]	–
CCOC(=O)CSC1=NC(=O)/C(=C\c2ccc(OC(C)=O)cc2)S1	–	inactive: 0.944%
CC(=O)c1ccc(NC(=O)c2ccc(C)c(S(=O)(=O)N3CCOCC3)c2)cc1	–	inactive: -5.99%
O=C1C2CC=CCC2C(=O)N1c1ccc(Cc2ccncc2)cc1 (stereo not given)	inconclusive [inhibitor, single point]	–
COc1ccccc1N1CCN(C(=O)COc2ccc(Cl)cc2)CC1	inconclusive [inhibitor, single point]	–
Cc1ccc(NC(=O)c2cccnc2)cc1C	inconclusive [inhibitor, full curve]	–
O=C1NCCN(Cc2cccc(Oc3ccccc3)c2)C1CC(=O)N1CCCCC1 (stereo not given)	–	inactive: -6.94%
CC[C@H](C)[C@H](NC(=O)[C@H](Cc1ccc(O)cc1)NC(=O)[C@@H](N)C(C)C)C(=O)N[C@@H](Cc1cnc[nH]1)C(=O)N1CCC[C@H]1C(=O)N[C@@H](Cc1ccccc1)C(=O)O	inconclusive [inhibitor, full curve, poor fit]	–
Cc1ccc2nc(NC(=O)CSc3nc4ccccc4o3)sc2c1	inconclusive [inhibitor, full curve, poor fit]	–
Cn1c(=O)c2c(nc(N3CCCCC3)n2CCCNC2=NCCCC2)n(C)c1=O	inconclusive [inhibitor, full curve, poor fit]	–
c1ccc2c(c1)nc(NCCN1CCOCC1)c1nncn12	inconclusive [inhibitor, full curve, poor fit]	–
Cc1ccc(S(=O)(=O)NCc2ccc(C(=O)NCCCN3CCN(C)CC3)cc2)cc1	inconclusive [inhibitor, full curve, poor fit]	–
Cc1ccc(/C=C/S(=O)(=O)NCC(=O)OCC(=O)NCc2ccccc2)cc1	inconclusive [inhibitor, full curve, poor fit]	–
Cc1cc(C)c(S(=O)(=O)NC2CC(C)(C)NC(C)(C)C2)cc1Br	inconclusive [inhibitor, full curve]	–

— PubChem BioAssay AID485294 (National Center for Advancing Translational Sciences (NCATS), 2010)
